ChEMBL document CHEMBL3045800 (2003)

System: Oryza sativa
Assay: Induction of systemic acquired resistance against Pyricularia oryzae-induced Oryza sativa (rice) blast disease in 2.1 leaf stage Oryza sativa plants Oryza sativa cv. Nipponbare seedlings pre-treated with soil drench application of compound seven days before fungal inoculation assessed as compound level per pot causing protection against blast lesions disease development measured 7 days post fungal inoculation under green house conditions

SMILES | Activity
CSC(=O)c1cccc2nnsc12 | Dose-dependent effect
Cn1nc(Cl)cc1C(=O)O [3-CHLORO-1-METHYL-1H-PYRAZOLE-5-CARBOXYLIC ACID] | Dose-dependent effect
C=CCOC1=NS(=O)(=O)c2ccccc21 | Dose-dependent effect
